Residue numbers refer to the chain shown, from its start. Some of the results follow.

Results on 20 molecules are retold here after PMC9911399, “Two distinct binding modes provide the RNA-binding protein RbFox with extraordinary sequence specificity”.

The labels stand for the following.
T1: RBFOX1 RRM RbFoxmut (Fox-RRM*) (Homo sapiens, UniProt Q9NWB1 109-208, R118D;E147R;N151S;E152T)
T1 sequence: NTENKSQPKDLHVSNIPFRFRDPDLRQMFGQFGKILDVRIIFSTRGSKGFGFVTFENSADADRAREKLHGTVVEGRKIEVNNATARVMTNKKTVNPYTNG

B1: CCAACUA (DNA:RNA)
RNA: GGGAGACCGGAAUUCAGAUUGUCCCCAACUAUUAAAUCCCGUCGUAGCCACCA
DNA 1: CAATCTGAATTCCGGTCTCCC
DNA 2: TGGTGGCTACGACGGGATT
B2: AUCGUGU (DNA:RNA)
RNA: GGGAGACCGGAAUUCAGAUUGUCCAUCGUGUUUAAAUCCCGUCGUAGCCACCA
DNA 1: CAATCTGAATTCCGGTCTCCC
DNA 2: TGGTGGCTACGACGGGATT
B3: AACUAGA (DNA:RNA)
RNA: B2 RNA with U26A, G28U, U29A, U31A
DNA 1: CAATCTGAATTCCGGTCTCCC
DNA 2: TGGTGGCTACGACGGGATT
B4: UCUAUUU (DNA:RNA)
RNA: B1 RNA with C25U, A27U, C29U, A31U
DNA 1: CAATCTGAATTCCGGTCTCCC
DNA 2: TGGTGGCTACGACGGGATT
B5: CACUCAG (DNA:RNA)
RNA: B1 RNA with C26A, A27C, A28U, U30A, A31G
DNA 1: CAATCTGAATTCCGGTCTCCC
DNA 2: TGGTGGCTACGACGGGATT
B6: GUCCGGC (DNA:RNA)
RNA: B2 RNA with A25G, G28C, U29G, U31C
DNA 1: CAATCTGAATTCCGGTCTCCC
DNA 2: TGGTGGCTACGACGGGATT
B7: ACCAAGC (DNA:RNA)
RNA: B2 RNA with U26C, G28A, U29A, U31C
DNA 1: CAATCTGAATTCCGGTCTCCC
DNA 2: TGGTGGCTACGACGGGATT
B8: UAAAUGU (DNA:RNA)
RNA: B2 RNA with A25U, U26A, C27A, G28A
DNA 1: CAATCTGAATTCCGGTCTCCC
DNA 2: TGGTGGCTACGACGGGATT
B9: CGCAAGC (DNA:RNA)
RNA: B2 RNA with A25C, U26G, G28A, U29A, U31C
DNA 1: CAATCTGAATTCCGGTCTCCC
DNA 2: TGGTGGCTACGACGGGATT
B10: CAAAGGU (DNA:RNA)
RNA: B1 RNA with C26A, C29G, U30G, A31U
DNA 1: CAATCTGAATTCCGGTCTCCC
DNA 2: TGGTGGCTACGACGGGATT
B11: ACGGGAU (DNA:RNA)
RNA: B2 RNA with U26C, C27G, U29G, G30A
DNA 1: CAATCTGAATTCCGGTCTCCC
DNA 2: TGGTGGCTACGACGGGATT
B12: UGGAUCG (DNA:RNA)
RNA: B2 RNA with A25U, U26G, C27G, G28A, G30C, U31G
DNA 1: CAATCTGAATTCCGGTCTCCC
DNA 2: TGGTGGCTACGACGGGATT
B13: ACCAGCA (DNA:RNA)
RNA: B1 RNA with C25A, A27C, C29G, U30C
DNA 1: CAATCTGAATTCCGGTCTCCC
DNA 2: TGGTGGCTACGACGGGATT
B14: UGGUCUA (DNA:RNA)
RNA: B1 RNA with C25U, C26G, A27G, A28U
DNA 1: CAATCTGAATTCCGGTCTCCC
DNA 2: TGGTGGCTACGACGGGATT
B15: CUCCAGC (DNA:RNA)
RNA: B2 RNA with A25C, G28C, U29A, U31C
DNA 1: CAATCTGAATTCCGGTCTCCC
DNA 2: TGGTGGCTACGACGGGATT
B16: AUCGCCC (DNA:RNA)
RNA: B2 RNA with U29C, G30C, U31C
DNA 1: CAATCTGAATTCCGGTCTCCC
DNA 2: TGGTGGCTACGACGGGATT
B17: CGAUAAC (DNA:RNA)
RNA: B1 RNA with C26G, A28U, C29A, U30A, A31C
DNA 1: CAATCTGAATTCCGGTCTCCC
DNA 2: TGGTGGCTACGACGGGATT
B18: CACACGA (DNA:RNA)
RNA: B1 RNA with C26A, A27C, U30G
DNA 1: CAATCTGAATTCCGGTCTCCC
DNA 2: TGGTGGCTACGACGGGATT
B19: UGUCACU (DNA:RNA)
RNA: B2 RNA with A25U, U26G, C27U, G28C, U29A, G30C
DNA 1: CAATCTGAATTCCGGTCTCCC
DNA 2: TGGTGGCTACGACGGGATT
B20: AAUCAGC (DNA:RNA)
RNA: B2 RNA with U26A, C27U, G28C, U29A, U31C
DNA 1: CAATCTGAATTCCGGTCTCCC
DNA 2: TGGTGGCTACGACGGGATT

The test has as its target T1, RBFOX1 RRM RbFoxmut (Fox-RRM*). As to the kind of experiment: EMSA; HiTS-Eq, 1 nM pool, 10 min; buffer printed only for the single-RNA assays: 10 mM Tris pH 7.5, 150 mM NaCl, 3.4 mM EDTA, 0.001% NP-40, 30 C. To be noted: tags: His6 N-terminal (pET28a); label: 5' 32P. In short, it runs like this:
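Relative association constants, normalised to the cognate motif, were derived by comparing read counts of each RNA species with those of the control reaction. The RNA sequenced was the free fraction, separated by 8% native PAGE after a 10 min equilibration in 50 µL of 1 nM 5′-radiolabelled RNA (7 randomized nucleotides) with increasing concentrations of purified wild-type or mutant RbFox RRM.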
Background: A gel shift assay detects complexes by their altered migration in electrophoresis.
As to B1, the binding signal is 0.0921 KA relative to UGCAUGU.

For the molecule B2, the binding signal was 0.177 KA relative to UGCAUGU.

On to B3, for which the binding signal was 0.0999 KA relative to UGCAUGU.

As for B4, the binding signal was 0.0899 KA relative to UGCAUGU.

Regarding B5, the binding signal was 0.108 KA relative to UGCAUGU.

Regarding B6, the binding signal is 0.116 KA relative to UGCAUGU.

As for B7, the binding signal is 0.0576 KA relative to UGCAUGU.

With B8, the binding signal was 0.0741 KA relative to UGCAUGU.

In the case of B9, the binding signal is 0.0714 KA relative to UGCAUGU.

As to B10, the binding signal was 0.0691 KA relative to UGCAUGU.

On to B11, for which the binding signal is 0.105 KA relative to UGCAUGU.

Take B12: the binding signal was 0.597 KA relative to UGCAUGU.

For B13, the binding signal is 0.121 KA relative to UGCAUGU.

For B14, the binding signal was 0.122 KA relative to UGCAUGU.

Regarding B15, the binding signal was 0.114 KA relative to UGCAUGU.

Regarding B16, the binding signal is 0.0561 KA relative to UGCAUGU.

In the case of B17, the binding signal was 0.0716 KA relative to UGCAUGU.

Regarding B18, the binding signal is 0.0771 KA relative to UGCAUGU.

For the molecule B19, the binding signal is 0.0703 KA relative to UGCAUGU.

On to B20, for which the binding signal was 0.0705 KA relative to UGCAUGU.
